Experimental data reported in the supplement of paper PMC8728848.
The list shows a part of the results.

Tests used:
Test in all cases: glycan array binding signal (z-score within array); higher = stronger binding
Details in all cases: glycan notation: IUPAC condensed, linker removed
[1] = molecular target: Gal(b1-4)GlcNAc(b1-6)GalNAc
Procedure, shortened: (§1)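 Columns mapping to the same glycan were averaged after glycan names were converted to IUPAC-condensed notation. The data come from 3228 arrays in the Consortium for Functional Glycomics database, limited to those with an available protein sequence. Binding is reported as a within-array Z-score averaged across arrays of one protein sequence and across linkers.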

[2] = molecular target: Gal(b1-4)GlcNAc(b1-6)[Gal(b1-3)]GalNAc
Procedure, shortened: as §1

[3] = molecular target: Gal(b1-4)GlcNAc(b1-6)[Gal(b1-4)GlcNAc(b1-3)]GalNAc
Procedure, shortened: as §1

Gal(b1-4)GlcNAc6P = molecular target: Gal(b1-4)GlcNAc6P
Procedure, shortened: as §1

Gal(b1-6)Gal = molecular target: Gal(b1-6)Gal
Procedure, shortened: as §1

Gal3S(b1-3)GalNAc = molecular target: Gal3S(b1-3)GalNAc
Procedure, shortened: as §1

Gal3S(b1-3)GlcNAc = molecular target: Gal3S(b1-3)GlcNAc
Procedure, shortened: as §1

[4] = molecular target: Gal3S(b1-3)[Fuc(a1-4)]GlcNAc
Procedure, shortened: as §1

Gal3S(b1-4)Glc = molecular target: Gal3S(b1-4)Glc
Procedure, shortened: as §1

Gal3S(b1-4)Glc6S = molecular target: Gal3S(b1-4)Glc6S
Procedure, shortened: as §1

Gal3S(b1-4)GlcNAc = molecular target: Gal3S(b1-4)GlcNAc
Procedure, shortened: as §1

[5] = molecular target: Gal3S(b1-4)[Fuc(a1-3)]Glc6S
Procedure, shortened: as §1

[6] = molecular target: Gal3S(b1-4)[Fuc(a1-3)]GlcNAc
Procedure, shortened: as §1

[7] = molecular target: Gal3S(b1-4)[Fuc(a1-3)]GlcNAc6S
Procedure, shortened: as §1

Gal3S4S(b1-4)GlcNAc = molecular target: Gal3S4S(b1-4)GlcNAc
Procedure, shortened: as §1

Gal3S6S(b1-4)GlcNAc = molecular target: Gal3S6S(b1-4)GlcNAc
Procedure, shortened: as §1

Gal3S6S(b1-4)GlcNAc6S = molecular target: Gal3S6S(b1-4)GlcNAc6S
Procedure, shortened: as §1

Gal4S(b1-4)GlcNAc = molecular target: Gal4S(b1-4)GlcNAc
Procedure, shortened: as §1

Gal4S6S(b1-4)GlcNAc = molecular target: Gal4S6S(b1-4)GlcNAc
Procedure, shortened: as §1

Gal6P(b1-4)GlcNAc = molecular target: Gal6P(b1-4)GlcNAc
Procedure, shortened: as §1

Gal6S(b1-3)GlcNAc = molecular target: Gal6S(b1-3)GlcNAc
Procedure, shortened: as §1

Gal6S(b1-3)GlcNAc6S = molecular target: Gal6S(b1-3)GlcNAc6S
Procedure, shortened: as §1

Gal6S(b1-4)Glc = molecular target: Gal6S(b1-4)Glc
Procedure, shortened: as §1

Gal6S(b1-4)Glc6S = molecular target: Gal6S(b1-4)Glc6S
Procedure, shortened: as §1

Gal6S(b1-4)GlcNAc = molecular target: Gal6S(b1-4)GlcNAc
Procedure, shortened: as §1

Gal6S(b1-4)GlcNAc6S = molecular target: Gal6S(b1-4)GlcNAc6S
Procedure, shortened: as §1

GalNAc(a1-3)Gal = molecular target: GalNAc(a1-3)Gal
Procedure, shortened: as §1

GalNAc(a1-3)GalNAc = molecular target: GalNAc(a1-3)GalNAc
Procedure, shortened: as §1

[8] = molecular target: GalNAc(a1-3)GalNAc(a1-3)Gal(a1-4)Gal(b1-4)GlcNAc
Procedure, shortened: as §1

[9] = molecular target: GalNAc(a1-3)GalNAc(b1-3)Gal(a1-4)Gal(b1-4)Glc
Procedure, shortened: as §1

GalNAc(b1-3)Gal = molecular target: GalNAc(b1-3)Gal
Procedure, shortened: as §1

[10] = molecular target: GalNAc(b1-3)Gal(a1-4)Gal(b1-4)GlcNAc
Procedure, shortened: as §1

[11] = molecular target: GalNAc(b1-3)Gal(a1-4)Gal(b1-4)GlcNAc(b1-3)Gal(b1-4)Glc
Procedure, shortened: as §1

[12] = molecular target: GalNAc(b1-3)Gal(a1-6)Gal(b1-4)Glc
Procedure, shortened: as §1

GalNAc(b1-3)GalNAc = molecular target: GalNAc(b1-3)GalNAc
Procedure, shortened: as §1

GalNAc(b1-3)GlcNAc = molecular target: GalNAc(b1-3)GlcNAc
Procedure, shortened: as §1

GalNAc(b1-4)Gal(b1-4)Glc = molecular target: GalNAc(b1-4)Gal(b1-4)Glc
Procedure, shortened: as §1

GalNAc(b1-4)GlcNAc = molecular target: GalNAc(b1-4)GlcNAc
Procedure, shortened: as §1

B1: ECL (Erythrina cristagalli), Q6YD91 (protein)
chain: VETISFSFSEFEPGNNDLTLQGAAIITQSGVLQLTKINQNGMPAWDSTGRTLYTKPVHIWDMTTGTVASFETRFSFSIEQPYTRPLPADGLVFFMGPTKSKPAQGYGYLGVFNNSKQDNSYQTLAVEFDTFSNPWDPPQVPHIGIDVNSIRSIKTQPFQLDNGQVANVVIKYDASSKILLAVLVYPSSGAIYTIAEIVDVKQVLPEWVDVGLSGATGAQRDAAETHDVYSWSFHASLPETND
With B1 the “glycan array binding signal (z-score)” value [1] was 0.199, the “glycan array binding signal (z-score)” value [2] was -0.019 and the “glycan array binding signal (z-score)” value [3] was 0.77. The “glycan array binding signal (z-score)” value (Gal(b1-4)GlcNAc6P) was -0.106, the “glycan array binding signal (z-score)” value (Gal(b1-6)Gal) was -0.044 and the “glycan array binding signal (z-score)” value (Gal3S(b1-3)GalNAc) was -0.312. For the same binder, the “glycan array binding signal (z-score)” value (Gal3S(b1-3)GlcNAc) was -0.33, the “glycan array binding signal (z-score)” value [4] was -0.191 and the “glycan array binding signal (z-score)” value (Gal3S(b1-4)Glc) was -0.22. For the same binder, the “glycan array binding signal (z-score)” value (Gal3S(b1-4)Glc6S) was -0.281, the “glycan array binding signal (z-score)” value (Gal3S(b1-4)GlcNAc) was -0.252 and the “glycan array binding signal (z-score)” value [5] was 0.786. The “glycan array binding signal (z-score)” value [6] was -0.248, the “glycan array binding signal (z-score)” value [7] was -0.309 and the “glycan array binding signal (z-score)” value (Gal3S4S(b1-4)GlcNAc) was -0.359. The “glycan array binding signal (z-score)” value (Gal3S6S(b1-4)GlcNAc) was -0.335, the “glycan array binding signal (z-score)” value (Gal3S6S(b1-4)GlcNAc6S) was -0.52 and the “glycan array binding signal (z-score)” value (Gal4S(b1-4)GlcNAc) was -0.487. For the same binder, the “glycan array binding signal (z-score)” value (Gal4S6S(b1-4)GlcNAc) was -0.421, the “glycan array binding signal (z-score)” value (Gal6P(b1-4)GlcNAc) was -0.564 and the “glycan array binding signal (z-score)” value (Gal6S(b1-3)GlcNAc) was -0.688. The “glycan array binding signal (z-score)” value (Gal6S(b1-3)GlcNAc6S) was -0.564, the “glycan array binding signal (z-score)” value (Gal6S(b1-4)Glc) was -0.326 and the “glycan array binding signal (z-score)” value (Gal6S(b1-4)Glc6S) was -0.216. For the same binder, the “glycan array binding signal (z-score)” value (Gal6S(b1-4)GlcNAc) was -0.447, the “glycan array binding signal (z-score)” value (Gal6S(b1-4)GlcNAc6S) was -0.595 and the “glycan array binding signal (z-score)” value (GalNAc(a1-3)Gal) was -0.142. The “glycan array binding signal (z-score)” value (GalNAc(a1-3)GalNAc) was -0.439, the “glycan array binding signal (z-score)” value [8] was -0.308 and the “glycan array binding signal (z-score)” value [9] was -0.353. The “glycan array binding signal (z-score)” value (GalNAc(b1-3)Gal) was -0.135, the “glycan array binding signal (z-score)” value [10] was -0.301 and the “glycan array binding signal (z-score)” value [11] was -0.295. For the same binder, the “glycan array binding signal (z-score)” value [12] was -0.225, the “glycan array binding signal (z-score)” value (GalNAc(b1-3)GalNAc) was -0.186 and the “glycan array binding signal (z-score)” value (GalNAc(b1-3)GlcNAc) was -0.192. For the same binder, the “glycan array binding signal (z-score)” value (GalNAc(b1-4)Gal(b1-4)Glc) was -0.262 and the “glycan array binding signal (z-score)” value (GalNAc(b1-4)GlcNAc) was 0.302.
